Test results taken from PubChem BioAssay AID2546 (National Center for Advancing Translational Sciences (NCATS), 2010).
The campaign covered roughly 310,000 compounds. About 11,000 (3.5%) were called active. Another 8% or so got no clear call; they are omitted. The call rests on the fitted dose curve; in most records, active means well fitted inhibition curve with a large enough effect; inconclusive means small, poorly fitted or top-dose-only effect, or effect the other way; inactive means flat fitted curve, though single readings scatter. Only a part is listed here, and it is no random draw.

experiment: VP16 counterscreen qHTS for inhibitors of ROR gamma transcriptional activity; settings: Drosophila S2 Gal4-VP16 UAS-luciferase, luminescence, 20 h; series mostly up to 53.6 µM; activity, negative = inhibition: at the top concentration;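 further: Gal4-VP16 expression switched on by copper sulfate through the metallothionein promoter; nearly all actives have a fitted effect of over 50% in size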
On the % scale 0 is the no-effect control and ±100 the full control effect; potency means the concentration at half of the fitted maximal effect.

SMILES	Potency	activity, negative = inhibition
O=C(N/N=C/c1cc([N+](=O)[O-])ccc1O)c1ccc2c(c1)OCCO2	active: 1.41 µM	–
CC[C@H]1OC(=O)[C@H](C)[C@@H](O[C@H]2C[C@@](C)(OC)[C@@H](O)[C@H](C)O2)[C@H](C)[C@@H](O[C@@H]2O[C@H](C)C[C@H](N(C)C)[C@H]2O)[C@](C)(O)C[C@@H](C)C(=NOCOCCOC)[C@H](C)[C@@H](O)[C@]1(C)O	–	inactive: -6.55%
CCc1cc2c(nc1CC)CCN(CC/C(C)=N/O[C@@H](C)c1cc(-c3c(C)cc(C)cc3C)no1)C2	–	inactive: -16.8% [at 10 µM]
COC(=O)/C(=C1/Oc2ccc(C(C)(C)C)cc2S1)C(F)(F)F	–	inactive: -14.9%
FC(F)Oc1ccc(NC(=S)NC23CC4CC(CC(C4)C2)C3)cc1	active: 7.08 µM	–
COc1ccc(C(=O)CC(=O)C(=O)Nc2c(C)cccc2C)cc1	active: 5.62 µM	–
CC1(C)SC2C(NC(=O)COc3ccccc3)C(=O)N2C1C(=O)O (configuration not stated)	inactive	–
Nc1ccccc1C(=O)/C=C\c1ccc2c(c1)OCO2	–	inactive: -1.35% [at 10 µM]
CC[C@@H]1CC=C[C@H]2[C@H]1C(=O)N(Cc1ccccc1)[C@H]2c1ccc2ccccc2c1	–	inactive: -0.713%
Cc1ccc(S(=O)(=O)NC(=O)NC(C)Cc2ccccc2)cc1 (configuration not stated)	–	inactive: -9.48%
C[C@@]12C(=O)OC(=O)[C@@]1(C)[C@@H]1CC[C@@H]2O1	–	inactive: 8.71%
O=C(Nc1ccccc1)C1=C[C@H](c2ccc(Br)cc2)C[C@H](OCc2ccc(CO)cc2)O1	–	inactive: 1.58%
COc1ccccc1-c1cc(C(=O)N/N=C/c2ccc(C)s2)c2ccccc2n1	active: 4.47 µM	–
Cc1nc2sccn2c(=O)c1CCN1CCC(=C(c2ccc(F)cc2)c2ccc(F)cc2)CC1	inactive	–
CC(=O)N1[C@H](Cc2ccccc2)C=C[C@]1(C)C(=O)NCCN1CCOCC1	–	inactive: 9.05%
CCn1c(SCC(=O)c2ccc(C)cc2)nnc1-c1ccoc1C	active: 15.8 µM	–
C[C@@H](C(=O)Nc1ccc2ccccc2c1)[C@@H]1C[C@@]1(C)[C@@H](NC(=O)c1cccnc1)c1ccccc1	–	inactive: -15.7%
COc1ccccc1/C=C/C=N/n1c(-c2ccc(Cl)cc2Cl)n[nH]c1=S	–	inactive: -3.77%
COc1cccc(C(=O)Oc2c(Br)cc(Br)cc2/C=N/NC(=O)c2cc(C)[nH]n2)c1	active: 22.4 µM	–
Nc1ccc(C(=O)O)c(O)c1	inactive	–
O=C1/C(=C/c2cccnc2)Sc2ccccc21	–	inactive: 13.7%

SMILES	Potency	activity, negative = inhibition
O=C(C1=C[C@H](C2CCCCC2)C[C@H](OCc2ccc(CO)cc2)O1)N1CCN(Cc2ccccc2)CC1	–	inactive: -17.8%
O=C(Cc1ccccc1)NC(=S)Nc1ccc2oc(-c3ccccc3)nc2c1	active: 7.08 µM	–
CC(/C=C/c1ccco1)=N\NC(=O)COc1ccc(C)c(C)c1	active: 8.91 µM	–
COc1ccc(-c2n[nH]c(=S)n2Cc2ccccc2)cc1	active: 7.08 µM	–
COc1cc2nc(N3CCN(C(=O)[C@@H]4COc5ccccc5O4)CC3)nc(N)c2cc1OC	–	inactive: -8.38% [at 17 µM]
CCOC(=O)N1CC=C2C(C#N)=C(N)C(C#N)(C#N)[C@H](c3cccs3)[C@H]2C1	–	inactive: 1.75%
Cc1ccc(S(=O)(=O)NCCC(=O)Nc2ccc(Cl)c(Cl)c2)cc1C	active: 11.2 µM	–
CC(C)(C)CN1C(N)=NC[C@@H]1Cc1ccc(O)cc1	–	inactive: 4.55%
Cc1ccc(C(=O)N/C(=C/c2ccc(-c3cccc([N+](=O)[O-])c3)o2)C(=O)NC(C)(C)C)cc1	–	inactive: -18.3%
CC(C)(C)c1ccc(-n2ncc3c2CCCC3NC(=O)C2(C(N)=O)CC2)cc1 (configuration not stated)	active: 2.51 µM	–
COc1ccc2c(c1)O[C@H](c1ccc3c(c1)OCO3)[C@@H](OC(=O)N[C@H](C)C1CCCCC1)C2=O	–	inactive: -2%
Cc1nn(-c2cccc(Cl)c2)c(Cl)c1/C=N/NC(=O)c1cccs1	active: 12.6 µM	–
CC(/C=N/NC(=O)CSc1nc(C)cc(C)n1)=C\c1ccccc1	–	inactive: 2.15%
Cc1nn(Cc2n[nH]c(=S)n2Cc2ccccc2)c(C)c1Cl	active: 20 µM	–
CC[C@@H]1CC=C[C@H]2[C@H]1C(=O)N(Cc1ccccc1)[C@H]2c1ccc(OC)c(Cl)c1	–	inactive: 7.63%
C=C1c2cccc(O)c2C(O)=C2C(=O)[C@]3(O)C(O)=C(C(N)=O)C(=O)[C@@H](N(C)C)[C@@H]3[C@@H](O)[C@H]12	–	inactive: -4.97%
COc1ccc(SC[C@H](CC(C)C)N2CCN(CCc3ccccc3)CCC2=O)cc1	–	inactive: 18%
COc1ccc2ccc3c(c2c1)N=CC1(O3)N(C)c2ccccc2C1(C)C (configuration not stated)	–	inactive: 10.8%
CN1CCN(CCC=C2c3ccccc3Sc3ccc(S(=O)(=O)N(C)C)cc32)CC1	–	inactive: -29.1%
COc1ccc(C2/C=C\CN(C(=O)c3ccc(C)cc3)CC(=O)N2Cc2ccc(F)cc2)cc1 (configuration not stated)	–	inactive: -9.25%
CC(=O)/C=C(/C)NC(Cc1c[nH]c2ccccc12)C(=O)O (configuration not stated)	–	inactive: -3.6%

SMILES	Potency	activity, negative = inhibition
CC1(C)CC2CC(C)(CN2C(=S)NC(=O)c2ccccc2Cl)C1 (configuration not stated)	active: 1 µM	–
CCOc1ccc(N/C(C)=C/C(=O)c2ccc3c(c2)OCCO3)cc1	–	inactive: 0.187%
Oc1cccc(-c2nc3ccccc3s2)c1	active: 10 µM	–
COc1ccc(-c2cc(=O)c3cc(C)ccc3[nH]2)cc1	–	inactive: -13.3% [at 96.6 µM]
C=C(CC1([C@@H](NP(=O)(c2ccccc2)c2ccccc2)[C@H]2C[C@@H]2CCCC)CC1)c1ccccc1	–	inactive: -18.6%
CC(C)c1ccc2c(c1)CCC1C(C)(CN)CCCC21C (configuration not stated)	–	inactive: 3.02%
Nc1nonc1-n1nnc(C(=O)N/N=C/c2cccs2)c1CSc1ccccc1	active: 5.01 µM	–
COc1cc2c(cc1NC(=O)COC(=O)C1CC(=O)N(Cc3ccco3)C1)oc1ccccc12 (configuration not stated)	active: 7.94 µM	–
CCOC(=O)C1CCN(CC(=O)Nc2c(C(=O)OC)[nH]c3ccc(Cl)cc23)CC1	active: 10 µM	–
N#C/C(=C\c1ccc([N+](=O)[O-])o1)c1nc2ccccc2[nH]1	active: 1.58 µM	–
COc1cc2c(c(OC)c1OC)-c1c(cc(OC)c(OC)c1OC)C[C@H](C)[C@H](C)C2	–	inactive: -12.3%
CCN(CC)C(=O)/C(=C\c1ccc2c(c1)OCO2)NC(=O)c1ccc(Br)cc1	–	inactive: -3.06%
CCc1cc2c(nc1CC)CCN(CC/C(C)=N/OC[C@H]1O[C@H](c3ccccc3)C=C[C@@H]1Oc1ccc(OC)cc1)C2	–	inactive: -0.952% [at 10 µM]
NC1=NC(=O)/C(=C\c2cccs2)S1	–	inactive: -2.13% [at 0.365 µM]
C[C@H]1CCC[C@]2(O[C@@H](CCO)C[C@H](O)[C@H]2O)O1	–	inactive: -6.98%
CC[C@]1([C@H]2O[C@@H]([C@@H]3O[C@](O)(CO)[C@@H](C)C[C@H]3C)C[C@H]2C)CC[C@@H]([C@]2(C)CC[C@@]3(C[C@@H](O)[C@@H](C)[C@@H]([C@H](C)[C@H](OC)[C@H](C)C(=O)O)O3)O2)O1	–	inactive: -16.1% [at 17 µM]
CCC(=O)NC(c1ccc(C)cc1)c1cc([N+](=O)[O-])c2cccnc2c1O (configuration not stated)	active: 2.82 µM	–
Nc1c(-c2ccccc2)cnc2c(-c3ccccc3)cnn12	active: 7.08 µM	–
CC1(COc2ccc(C[C@H]3SC(=O)NC3=O)cc2)CCCCC1	–	inactive: -21.1%
O=Nc1c(-c2ccccc2)[nH]n(-c2ccccc2)c1=O	active: 15.8 µM	–
